{"source": "paper PMC9911399", "about": "“Two distinct binding modes provide the RNA-binding protein RbFox with extraordinary sequence specificity”", "binders": {"B1": {"name": "CAUCACC (DNA:RNA)", "RNA": "GGGAGACCGGAAUUCAGAUUGUCCCAUCACCUUAAAUCCCGUCGUAGCCACCA", "DNA 1": "CAATCTGAATTCCGGTCTCCC", "DNA 2": "TGGTGGCTACGACGGGATT"}, "B2": {"name": "GACUGGA (DNA:RNA)", "RNA": "B1 RNA with C25G, U27C, C28U, A29G, C30G, C31A", "DNA 1": "CAATCTGAATTCCGGTCTCCC", "DNA 2": "TGGTGGCTACGACGGGATT"}, "B3": {"name": "CCCAUGG (DNA:RNA)", "RNA": "B1 RNA with A26C, U27C, C28A, A29U, C30G, C31G", "DNA 1": "CAATCTGAATTCCGGTCTCCC", "DNA 2": "TGGTGGCTACGACGGGATT"}, "B4": {"name": "GAAGCGU (DNA:RNA)", "RNA": "B1 RNA with C25G, U27A, C28G, A29C, C30G, C31U", "DNA 1": "CAATCTGAATTCCGGTCTCCC", "DNA 2": "TGGTGGCTACGACGGGATT"}, "B5": {"name": "GCUUAAG (DNA:RNA)", "RNA": "B1 RNA with C25G, A26C, C28U, C30A, C31G", "DNA 1": "CAATCTGAATTCCGGTCTCCC", "DNA 2": "TGGTGGCTACGACGGGATT"}, "B6": {"name": "GCCUCAU (DNA:RNA)", "RNA": "GGGAGACCGGAAUUCAGAUUGUCCGCCUCAUUUAAAUCCCGUCGUAGCCACCA", "DNA 1": "CAATCTGAATTCCGGTCTCCC", "DNA 2": "TGGTGGCTACGACGGGATT"}, "B7": {"name": "CACCGAU (DNA:RNA)", "RNA": "B1 RNA with U27C, A29G, C30A, C31U", "DNA 1": "CAATCTGAATTCCGGTCTCCC", "DNA 2": "TGGTGGCTACGACGGGATT"}, "B8": {"name": "CACUACU (DNA:RNA)", "RNA": "B1 RNA with U27C, C28U, C31U", "DNA 1": "CAATCTGAATTCCGGTCTCCC", "DNA 2": "TGGTGGCTACGACGGGATT"}, "B9": {"name": "AGUGCGU (DNA:RNA)", "RNA": "B6 RNA with G25A, C26G, C27U, U28G, A30G", "DNA 1": "CAATCTGAATTCCGGTCTCCC", "DNA 2": "TGGTGGCTACGACGGGATT"}, "B10": {"name": "CUCCCUC (DNA:RNA)", "RNA": "B1 RNA with A26U, U27C, A29C, C30U", "DNA 1": "CAATCTGAATTCCGGTCTCCC", "DNA 2": "TGGTGGCTACGACGGGATT"}, "B11": {"name": "GGUGGUG (DNA:RNA)", "RNA": "B1 RNA with C25G, A26G, C28G, A29G, C30U, C31G", "DNA 1": "CAATCTGAATTCCGGTCTCCC", "DNA 2": "TGGTGGCTACGACGGGATT"}, "B12": {"name": "GGUCAGG (DNA:RNA)", "RNA": "B1 RNA with C25G, A26G, C30G, C31G", "DNA 1": "CAATCTGAATTCCGGTCTCCC", "DNA 2": "TGGTGGCTACGACGGGATT"}, "B13": {"name": "ACAUUGU (DNA:RNA)", "RNA": "B6 RNA with G25A, C27A, C29U, A30G", "DNA 1": "CAATCTGAATTCCGGTCTCCC", "DNA 2": "TGGTGGCTACGACGGGATT"}, "B14": {"name": "UUCAAGA (DNA:RNA)", "RNA": "B1 RNA with C25U, A26U, U27C, C28A, C30G, C31A", "DNA 1": "CAATCTGAATTCCGGTCTCCC", "DNA 2": "TGGTGGCTACGACGGGATT"}, "B15": {"name": "CCCAGUU (DNA:RNA)", "RNA": "B6 RNA with G25C, U28A, C29G, A30U", "DNA 1": "CAATCTGAATTCCGGTCTCCC", "DNA 2": "TGGTGGCTACGACGGGATT"}, "B16": {"name": "ACGUCAU (DNA:RNA)", "RNA": "B6 RNA with G25A, C27G", "DNA 1": "CAATCTGAATTCCGGTCTCCC", "DNA 2": "TGGTGGCTACGACGGGATT"}, "B17": {"name": "UGUUAAA (DNA:RNA)", "RNA": "B1 RNA with C25U, A26G, C28U, C30A, C31A", "DNA 1": "CAATCTGAATTCCGGTCTCCC", "DNA 2": "TGGTGGCTACGACGGGATT"}, "B18": {"name": "UGUGGUG (DNA:RNA)", "RNA": "B1 RNA with C25U, A26G, C28G, A29G, C30U, C31G", "DNA 1": "CAATCTGAATTCCGGTCTCCC", "DNA 2": "TGGTGGCTACGACGGGATT"}, "B19": {"name": "UCGCUAG (DNA:RNA)", "RNA": "B6 RNA with G25U, C27G, U28C, C29U, U31G", "DNA 1": "CAATCTGAATTCCGGTCTCCC", "DNA 2": "TGGTGGCTACGACGGGATT"}, "B20": {"name": "AUUGCCG (DNA:RNA)", "RNA": "B1 RNA with C25A, A26U, C28G, A29C, C31G", "DNA 1": "CAATCTGAATTCCGGTCTCCC", "DNA 2": "TGGTGGCTACGACGGGATT"}, "B21": {"name": "UGCCAAA (DNA:RNA)", "RNA": "B1 RNA with C25U, A26G, U27C, C30A, C31A", "DNA 1": "CAATCTGAATTCCGGTCTCCC", "DNA 2": "TGGTGGCTACGACGGGATT"}, "B22": {"name": "GACUAUG (DNA:RNA)", "RNA": "B6 RNA with C26A, C29A, A30U, U31G", "DNA 1": "CAATCTGAATTCCGGTCTCCC", "DNA 2": "TGGTGGCTACGACGGGATT"}, "B23": {"name": "CGCGCAG (DNA:RNA)", "RNA": "B6 RNA with G25C, C26G, U28G, U31G", "DNA 1": "CAATCTGAATTCCGGTCTCCC", "DNA 2": "TGGTGGCTACGACGGGATT"}, "B24": {"name": "GCAUAAC (DNA:RNA)", "RNA": "B6 RNA with C27A, C29A, U31C", "DNA 1": "CAATCTGAATTCCGGTCTCCC", "DNA 2": "TGGTGGCTACGACGGGATT"}, "B25": {"name": "UAAAUGC (DNA:RNA)", "RNA": "B1 RNA with C25U, U27A, C28A, A29U, C30G", "DNA 1": "CAATCTGAATTCCGGTCTCCC", "DNA 2": "TGGTGGCTACGACGGGATT"}, "B26": {"name": "ACAUUUC (DNA:RNA)", "RNA": "B6 RNA with G25A, C27A, C29U, A30U, U31C", "DNA 1": "CAATCTGAATTCCGGTCTCCC", "DNA 2": "TGGTGGCTACGACGGGATT"}, "B27": {"name": "UCUAACA (DNA:RNA)", "RNA": "B1 RNA with C25U, A26C, C28A, C31A", "DNA 1": "CAATCTGAATTCCGGTCTCCC", "DNA 2": "TGGTGGCTACGACGGGATT"}, "B28": {"name": "UCACAUG (DNA:RNA)", "RNA": "B1 RNA with C25U, A26C, U27A, C30U, C31G", "DNA 1": "CAATCTGAATTCCGGTCTCCC", "DNA 2": "TGGTGGCTACGACGGGATT"}, "B29": {"name": "GGUUGAU (DNA:RNA)", "RNA": "B6 RNA with C26G, C27U, C29G", "DNA 1": "CAATCTGAATTCCGGTCTCCC", "DNA 2": "TGGTGGCTACGACGGGATT"}, "B30": {"name": "UCGCCUA (DNA:RNA)", "RNA": "B6 RNA with G25U, C27G, U28C, A30U, U31A", "DNA 1": "CAATCTGAATTCCGGTCTCCC", "DNA 2": "TGGTGGCTACGACGGGATT"}, "B31": {"name": "CUAAGCU (DNA:RNA)", "RNA": "B1 RNA with A26U, U27A, C28A, A29G, C31U", "DNA 1": "CAATCTGAATTCCGGTCTCCC", "DNA 2": "TGGTGGCTACGACGGGATT"}}, "note": "Positions count from the first letter of the chain named. The list shows a part of the results."}
{"biological_target": "T1, RBFOX1 RRM RbFoxmut (Fox-RRM*) (Homo sapiens, UniProt Q9NWB1 109-208, R118D;E147R;N151S;E152T)", "T1 sequence": "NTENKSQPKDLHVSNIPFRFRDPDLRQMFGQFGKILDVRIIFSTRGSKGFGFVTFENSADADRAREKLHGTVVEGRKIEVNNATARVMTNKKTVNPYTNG", "test": "EMSA; HiTS-Eq, 1 nM pool, 10 min; buffer printed only for the single-RNA assays: 10 mM Tris pH 7.5, 150 mM NaCl, 3.4 mM EDTA, 0.001% NP-40, 30 C", "details": "tags: His6 N-terminal (pET28a); label: 5' 32P", "summary_of_the_method": "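Relative association constants, normalised to the cognate motif, were derived by comparing read counts of each RNA species with those of the control reaction. The RNA sequenced was the free fraction, separated by 8% native PAGE after a 10 min equilibration in 50 µL of 1 nM 5′-radiolabelled RNA (7 randomized nucleotides) with increasing concentrations of purified wild-type or mutant RbFox RRM.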"}
{"binder": "B1", "binding signal": "0.0759 KA relative to UGCAUGU"}
{"binder": "B2", "binding signal": "0.0857 KA relative to UGCAUGU"}
{"binder": "B3", "binding signal": "0.0668 KA relative to UGCAUGU"}
{"binder": "B4", "binding signal": "0.0921 KA relative to UGCAUGU"}
{"binder": "B5", "binding signal": "0.12 KA relative to UGCAUGU"}
{"binder": "B6", "binding signal": "0.117 KA relative to UGCAUGU"}
{"binder": "B7", "binding signal": "0.0813 KA relative to UGCAUGU"}
{"binder": "B8", "binding signal": "0.0793 KA relative to UGCAUGU"}
{"binder": "B9", "binding signal": "0.144 KA relative to UGCAUGU"}
{"binder": "B10", "binding signal": "0.0399 KA relative to UGCAUGU"}
{"binder": "B11", "binding signal": "0.175 KA relative to UGCAUGU"}
{"binder": "B12", "binding signal": "0.0722 KA relative to UGCAUGU"}
{"binder": "B13", "binding signal": "0.159 KA relative to UGCAUGU"}
{"binder": "B14", "binding signal": "0.0823 KA relative to UGCAUGU"}
{"binder": "B15", "binding signal": "0.0957 KA relative to UGCAUGU"}
{"binder": "B16", "binding signal": "0.107 KA relative to UGCAUGU"}
{"binder": "B17", "binding signal": "0.11 KA relative to UGCAUGU"}
{"binder": "B18", "binding signal": "0.273 KA relative to UGCAUGU"}
{"binder": "B19", "binding signal": "0.108 KA relative to UGCAUGU"}
{"binder": "B20", "binding signal": "0.118 KA relative to UGCAUGU"}
{"binder": "B21", "binding signal": "0.0841 KA relative to UGCAUGU"}
{"binder": "B22", "binding signal": "0.0965 KA relative to UGCAUGU"}
{"binder": "B23", "binding signal": "0.0806 KA relative to UGCAUGU"}
{"binder": "B24", "binding signal": "0.0979 KA relative to UGCAUGU"}
{"binder": "B25", "binding signal": "0.0677 KA relative to UGCAUGU"}
{"binder": "B26", "binding signal": "0.0703 KA relative to UGCAUGU"}
{"binder": "B27", "binding signal": "0.0955 KA relative to UGCAUGU"}
{"binder": "B28", "binding signal": "0.0943 KA relative to UGCAUGU"}
{"binder": "B29", "binding signal": "0.113 KA relative to UGCAUGU"}
{"binder": "B30", "binding signal": "0.095 KA relative to UGCAUGU"}
{"binder": "B31", "binding signal": "0.0832 KA relative to UGCAUGU"}
